This is an account of results in publication PMC4336329 (PLoS ONE, 2015).

About 2,200 (0.71%) of roughly 310,000 compounds showed an effect of 50% or more. The effect is printed as a negative number. This is one part of the list.

human ether-à-go-go-related gene (hERG) potassium channel, sequence (Q12809 whole entry, looked up): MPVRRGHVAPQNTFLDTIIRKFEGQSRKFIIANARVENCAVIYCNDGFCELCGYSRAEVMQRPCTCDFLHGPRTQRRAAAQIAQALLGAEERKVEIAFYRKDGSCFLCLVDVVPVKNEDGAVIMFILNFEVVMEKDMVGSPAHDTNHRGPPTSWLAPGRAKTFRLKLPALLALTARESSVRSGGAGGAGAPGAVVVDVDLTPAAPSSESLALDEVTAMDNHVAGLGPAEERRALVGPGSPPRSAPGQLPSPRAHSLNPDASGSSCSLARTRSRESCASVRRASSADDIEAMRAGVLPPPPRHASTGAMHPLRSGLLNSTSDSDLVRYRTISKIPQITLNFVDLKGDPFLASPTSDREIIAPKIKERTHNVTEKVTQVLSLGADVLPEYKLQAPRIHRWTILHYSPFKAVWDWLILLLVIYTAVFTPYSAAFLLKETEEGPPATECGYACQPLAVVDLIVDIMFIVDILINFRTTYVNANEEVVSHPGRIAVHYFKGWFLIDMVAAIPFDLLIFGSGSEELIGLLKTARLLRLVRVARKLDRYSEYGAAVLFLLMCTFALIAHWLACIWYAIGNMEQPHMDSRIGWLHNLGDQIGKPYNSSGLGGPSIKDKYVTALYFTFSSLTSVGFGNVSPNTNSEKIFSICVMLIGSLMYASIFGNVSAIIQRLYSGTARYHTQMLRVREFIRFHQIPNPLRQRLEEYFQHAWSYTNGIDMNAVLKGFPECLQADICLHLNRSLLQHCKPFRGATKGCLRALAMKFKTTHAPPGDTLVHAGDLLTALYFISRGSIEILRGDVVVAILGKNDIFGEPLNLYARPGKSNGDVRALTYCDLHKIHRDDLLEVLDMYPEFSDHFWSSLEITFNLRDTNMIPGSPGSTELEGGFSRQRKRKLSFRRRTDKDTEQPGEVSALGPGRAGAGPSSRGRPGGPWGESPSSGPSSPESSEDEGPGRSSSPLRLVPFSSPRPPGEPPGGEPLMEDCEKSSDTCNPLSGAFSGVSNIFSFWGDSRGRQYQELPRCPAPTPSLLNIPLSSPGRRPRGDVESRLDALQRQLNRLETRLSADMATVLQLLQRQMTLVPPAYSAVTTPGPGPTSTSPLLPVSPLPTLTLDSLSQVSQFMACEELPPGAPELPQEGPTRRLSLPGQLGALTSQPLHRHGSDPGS

This assay concerns the target human ether-à-go-go-related gene (hERG) potassium channel (human, UniProt Q12809). Description: primary screen, population patch clamp on CHO cells stably expressing hERG.
Turning to `CCS(=O)(=O)Nc1ccc(C2=NN(S(=O)(=O)CC)C(c3cccs3)C2)cc1` (stereo not drawn), the “hERG current change (%, negative = inhibition) at 1uM” value is 7.91%.
For `COc1ccc(C(=O)C2CCCN(S(=O)(=O)c3ccc(C(C)=O)cc3)C2)c(C)c1` (stereo not drawn), the “hERG current change (%, negative = inhibition) at 1uM” value was 11.2%.
On to `O=C(NCCCN1CCOCC1)C1COc2ccccc2O1` (stereo not drawn), for which the “hERG current change (%, negative = inhibition) at 1uM” value was 23.8%.
As to `O=C(/C=C/c1ccc2c(c1)OCO2)NCc1ccncc1`, the “hERG current change (%, negative = inhibition) at 1uM” value was found to be 10%.
For the molecule `CC(C)(C)C(=O)c1cnc(Nc2ccccc2)s1`, the “hERG current change (%, negative = inhibition) at 1uM” value worked out at 3.13%.
Take `COc1ccc(-c2nc(S(=O)(=O)c3ccc(C)cc3)c(N3CCCC3)o2)cc1`: the “hERG current change (%, negative = inhibition) at 1uM” value came out at 9.56%.
Take `O=C(CSc1nnc2c(n1)[nH]c1ccc(S(=O)(=O)N3CCOCC3)cc12)Nc1ccc(F)c(F)c1`: the “hERG current change (%, negative = inhibition) at 1uM” value is listed as -1.02%.
Regarding `C[C@]12CC[C@@H]3c4ccc(O)cc4C(=O)C[C@H]3[C@@H]1CC[C@@H]2O`, the “hERG current change (%, negative = inhibition) at 1uM” value is recorded as -16.4%.
Regarding `O=C(CCN1C(=O)[C@@H]2Cc3ccccc3CN2C1=O)N[C@@H](Cc1ccccc1)C(=O)O`, the “hERG current change (%, negative = inhibition) at 1uM” value is 10.6%.
Then `CCc1nc(SCC(=O)NCC2CCCO2)c2c(=O)n(C)c(=O)n(C)c2n1` (stereo not drawn), with 11.9%; and `O=C(Nc1ccc2nsnc2c1)N1CCCCC1`, with 11.2%.
Regarding `Cc1ccnc2nc(C(=O)Nc3cc(Cl)ccc3N3CCOCC3)nn12`, the “hERG current change (%, negative = inhibition) at 1uM” value is reported as 10.7%.
Take `CC(C)NC(=O)COC(=O)c1ccc(O)cc1`: the “hERG current change (%, negative = inhibition) at 1uM” value came out at 6.17%.
On to `O=C(O)c1cc(-c2ccco2)nc2ccccc12`, for which the “hERG current change (%, negative = inhibition) at 1uM” value amounted to 17.1%.
As for `COc1cccc(Nc2ncnc3nc[nH]c23)c1`, the “hERG current change (%, negative = inhibition) at 1uM” value amounted to 3.68%.
As for `CCOc1ccc(-n2c(SCC(=O)Nc3cc(C)on3)nc3c([nH]c4ccccc43)c2=O)cc1`, the “hERG current change (%, negative = inhibition) at 1uM” value is on record as 8.2%.
Turning to `CC(C)(C)NC(=O)NC(=O)COC(=O)Cn1c(C(F)(F)F)nc2ccccc21`, the “hERG current change (%, negative = inhibition) at 1uM” value was 18%.
The result for `O=C(c1ccc(N2CCCCC2)c([N+](=O)[O-])c1)N1CCC2(CC1)OCCO2` reads -7.03%.
As for `CCOC(=O)CC(=O)CSc1ncnc2c1nnn2-c1ccccc1`, the “hERG current change (%, negative = inhibition) at 1uM” value stood at 14.2%.
The result for `CC(C)OC(=O)c1cccc(C(=O)O)n1` reads 8.82%; that for `O=[N+]([O-])c1cccc(S(=O)(=O)Nc2ccc(-c3ccc(N4CCCC4)nn3)cc2)c1`, 6.92%; that for `CC[n+]1c(C)sc2c3ccsc3ccc21.[I-]`, 8.43%.
Then `FC(F)(F)c1nnc2ccc(NCn3nnc4ccccc43)nn12`, with 12.1%; and `CC(C)(C)C(=O)Nc1nnc(SCC(=O)NC2CCCCC2)s1`, with 18.1%.
As for `CC1CC(C)(C)NC(=S)N1CCCC(=O)NCCc1ccc(Cl)cc1` (stereo not drawn), the “hERG current change (%, negative = inhibition) at 1uM” value was found to be 3.92%.
The result for `CCCOc1ccc2c(=O)c(N3C(=O)c4ccccc4C3=O)c(C)oc2c1` reads -5.81%; that for `O=C(CC(c1ccccc1)c1ccccc1)N1CCN(c2ccccn2)CC1`, -10.8%.
Then `Cc1nc2ccccn2c1C(=O)N/N=C/c1cc(C)n(-c2ccc(Cl)cc2)c1C`, with -0.425%; and `O=C(NCCN1CCOCC1)c1ccc(=O)n(Cc2ccc(Cl)cc2)c1`, with 14.3%; and `CCOC(=O)Cn1c(N)c(C(=O)OC)sc1=S`, with 10.1%.
With `CCCCC(=O)Nc1ccc(C(N)=O)cc1`, the “hERG current change (%, negative = inhibition) at 1uM” value is 11.4%.
`CC(=O)c1ccc(NC(=O)c2noc3c2CCC3)cc1`: the “hERG current change (%, negative = inhibition) at 1uM” value was determined as 16.1%.
The result for `Br.COc1ccc(CNCc2ccc(F)cc2)c(OC)c1` reads -41.9%.
Consider `COc1cccc(NC(=O)c2ccccc2N(Cc2ccccc2)S(C)(=O)=O)c1`, for which the “hERG current change (%, negative = inhibition) at 1uM” value amounted to 5.95%.
The result for `O=C(Nc1ccon1)c1ccc(N2CCCCC2)c([N+](=O)[O-])c1` reads 9.77%.
For the molecule `CC[N+](CC)(CC#Cc1ccccc1)CC#Cc1ccccc1.[Br-]`, the “hERG current change (%, negative = inhibition) at 1uM” value was -27.3%.
Turning to `COc1ccc(C(=O)N(C)C2CCCCC2)cc1OC1CCN(C(C)C)CC1`, the “hERG current change (%, negative = inhibition) at 1uM” value came to 4.29%.
As for `O=C(NCCO)/C(=C\c1ccco1)NC(=O)c1cccs1`, the “hERG current change (%, negative = inhibition) at 1uM” value is 15.5%.
In the case of `O=C(NCc1ccco1)c1cc(=O)c2ccccc2o1`, the “hERG current change (%, negative = inhibition) at 1uM” value came to 15.9%.
The result for `Oc1ccccc1OCCOc1ccccc1OCCOc1ccccc1O` reads 7.63%.
Turning to `Cc1ccc(NC2CCCN(C(=O)Cc3nonc3C)C2)cc1C` (stereo not drawn), the “hERG current change (%, negative = inhibition) at 1uM” value was 20.8%.
For `COc1ccc(C(CC(=O)O)N2Cc3ccccc3C2=O)cc1OC` (stereo not drawn), the “hERG current change (%, negative = inhibition) at 1uM” value was found to be 12.1%.
Consider `Cc1ccc(NC(=O)COC(=O)CN2C(=O)COc3ccccc32)cc1`, for which the “hERG current change (%, negative = inhibition) at 1uM” value is listed as 13.2%.
Then `O=C(NCc1nc2ccccc2[nH]1)C1=C[C@@H](c2ccc(Br)cc2)C[C@@H](OCc2ccc(CO)cc2)O1`, with -1.96%.
For the molecule `COc1cc2c(cc1OC)C1(Nc3c-2c(-c2ccccc2)nn3-c2ccccc2)C(=O)Nc2ccccc21` (stereo not drawn), the “hERG current change (%, negative = inhibition) at 1uM” value worked out at 13.3%.
